Molecules are shown by their SMILES. The campaign covered roughly 50,000 compounds. About 800 (1.6%) showed an effect of 50% or more. The list shows a part of the results.

The target in the experiment is Bcl-2-like protein 10 (Homo sapiens) (UniProt Q9HD36). Put plainly: TR3 peptide-Bcl-B binding displacers, biochemical primary FP assay, phenotype converters (AID 1240).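 Further: 0% = Bcl-B with tracer peptide and DMSO and 100% = tracer peptide lacking Bcl-B.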 The settings on record: GST-Bcl-B / FITC-TR3 peptide fluorescence polarization; stronger effect = higher value; compound at 3.75 mg/L. Background: Fluorescence polarisation rises when a labelled molecule tumbles more slowly, as on binding a larger partner.
Chain of UniProt Q9HD36 (Q9HD36 whole entry, looked up): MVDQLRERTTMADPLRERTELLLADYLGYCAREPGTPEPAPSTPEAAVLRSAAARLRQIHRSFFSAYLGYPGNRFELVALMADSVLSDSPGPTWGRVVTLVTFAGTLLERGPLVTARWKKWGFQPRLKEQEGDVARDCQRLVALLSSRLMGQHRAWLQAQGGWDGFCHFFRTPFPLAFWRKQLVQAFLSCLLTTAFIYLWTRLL
Turning to `CC(=O)N(C1=C(Cl)C(=O)c2ccccc2C1=O)c1cccc(Br)c1`, the displacement was 34.4%. The value for `CCOc1ccccc1N(CC(=O)N1CCCC1)S(=O)(=O)c1ccccc1` was 8.7%; that for `CC(=O)C1=C(C)NC(C)=C(C(C)=O)C1c1ccc(-c2ccccc2[N+](=O)[O-])o1` was 10.8%. As to `O=c1cnnc(N/N=C/c2ccc(Br)cc2)[nH]1`, the displacement was -7.7%. Turning to `CC1=C(C(=O)OC(C)C)C(c2cccc(Cl)c2Cl)C2=C(CC(C)(C)CC2=O)N1` (centres undefined), the displacement is 12.1%. As for `O=C(N/N=C/c1cccc(Br)c1)c1ccc(N2CCCC2=O)cc1`, the displacement was -0.6%. With `O=C1C(=O)N(c2cccnc2)C(c2ccccc2)/C1=C(\O)c1ccc(Cl)cc1` (centres undefined), the displacement came to 4.7%. Consider `CC1CCc2c(sc(NC(=O)c3ccccc3[N+](=O)[O-])c2C(=O)OC(C)C)C1` (centres undefined), for which the displacement came to 9.6%. As to `COc1ccc(OC)c(NC(=S)NC(=O)c2ccco2)c1`, the displacement stood at 11.6%. `O=C(Nc1ccccc1C(=O)N1CCN(Cc2ccccc2)CC1)c1ccccc1F`: the displacement amounted to 12.8%. Regarding `S=C(Nc1ccc2nccnc2c1)N1CCOCC1`, the displacement was -1.7%. Turning to `CCc1ccc(/C=C(/C#N)c2nc(-c3ccc(Br)cc3)cs2)cc1`, the displacement is -3.5%.

Turning to `COC(=O)C1=C(C)N(Cc2cccnc2)C(=O)/C1=C\c1ccc(Br)cc1`, the displacement is -7.5%.

Regarding `CC(C)COC(=O)c1ccc(NC(=O)c2cccs2)cc1`, the displacement is -6%. Regarding `O=C1NC(=S)S/C1=C/c1ccncc1`, the displacement is -10.1%. In the case of `CCOC(=O)c1cc(CC)sc1NC(=O)COc1ccc(Cl)cc1Cl`, the displacement was -5.2%.

For `COc1cc(/C=C2\SC(=S)N(c3ccc([N+](=O)[O-])cc3)C2=O)ccc1OC(=O)c1cccc(C)c1`, the displacement is -3%.

For `CCOC(=O)c1c(-c2ccccc2)oc2cc(Br)c(OC(C)C(=O)OC)cc12` (centres undefined), the displacement worked out at 9.9%. In the case of `CCC(=O)c1ccc(N2CCN(C(C)=O)CC2)c(F)c1`, the displacement is -19.7%.

For `CC[n+]1ccc(C(O)P(=O)(c2ccccc2)c2ccccc2)cc1` (centres undefined), the displacement was -8%.

Turning to `Clc1ccc(-c2csc3nc4ccccc4n23)cc1`, the displacement came out at 9%.

In the case of `O=C(NNC(=O)c1c(F)c(F)c(F)c(F)c1F)c1ccccc1`, the displacement stood at 1.5%.

Turning to `O=C(c1cccc(I)c1)N1CCN(c2ccccn2)CC1`, the displacement is 6.9%. As to `COC(=O)c1c(NC(=O)c2cccnc2)sc(C)c1C`, the displacement came to 0.7%. As to `Cc1c(C)c2ccc(OCC(=O)c3ccc(-c4ccccc4)cc3)cc2oc1=O`, the displacement stood at 6.4%. Take `CCCOC(=O)c1ccc(NC(=O)CC(C)C)cc1`: the displacement is -7.1%.

On to `Cc1ccc(NC(=O)CCN2C(=O)S/C(=C\c3ccccc3)C2=O)cc1`, for which the displacement was -8.5%.

In the case of `CCC(C(=O)Nc1ccc(C)cc1)c1ccccc1` (centres undefined), the displacement is -1%. With `CCCOC(=O)C1=C(C)NC2=C(C(=O)CC(C)(C)C2)C1c1ccc(O)c([N+](=O)[O-])c1` (centres undefined), the displacement amounted to 2.9%. Take `COc1ccc(N2C(=O)CC(Nc3ccc(N4CCCCC4)cc3)C2=O)cc1` (centres undefined): the displacement was 0.4%. `COc1ccc(C(N)=O)cc1NC(=O)c1ccccc1C`: the displacement was -16.4%. As for `CCn1c2ccccc2c2cc(CNCc3ccc(OC)cc3)ccc21`, the displacement amounted to 0.8%. The figure for `Cc1ccc(OCC(=O)Nc2cccc(I)c2)c(Br)c1` is -6.5%; for `COc1ccc(S(=O)(=O)N2CCN(Cc3cccc(OC)c3OC)CC2)cc1` it is 4.4%; for `CCOc1ccc(/C=C2/C(=O)NC(=O)N(c3ccc(C)cc3)C2=O)cc1` it is -9.7%. Take `COc1ccc(OC)c(/C=C/C(=O)Nc2ccc(OC)cc2OC)c1`: the displacement came out at 0.5%. Regarding `O=[N+]([O-])c1ccccc1OCCOCCN1CCOCC1`, the displacement amounted to 3.2%. Take `Cc1ccc(C(C)C)c(OCC(=O)Nc2cccc(-c3nc4ncccc4o3)c2C)c1`: the displacement came to 6.3%. For `C=CCc1cccc2cc(C(=O)Nc3cccc(C(C)=O)c3)c(=O)oc12`, the displacement was found to be 4.6%. `CC(=O)N(C(C)=O)c1ccc(-c2ccco2)cc1`: the displacement worked out at 11%.

Turning to `CCc1cccc(C)c1NC(=O)C(CC(C)C)N1C(=O)c2ccccc2C1=O` (centres undefined), the displacement is -2.3%. The figure for `COC(=O)c1ccc(COc2cc(C)cc3oc(=O)cc(-c4ccccc4)c23)cc1` is 9.9%. Turning to `CCCCNC(=O)C(=O)NCCN1CCOCC1`, the displacement was -9.9%. As for `CCOC(=O)COc1c(Cl)cc(/C=C2\C(=O)NC(=O)N(c3ccc(Cl)cc3)C2=O)cc1Cl`, the displacement is -7.8%. Regarding `O=C(/C=C/c1cccc([N+](=O)[O-])c1)c1cccc(Br)c1`, the displacement was -2.7%. Regarding `CCc1ccc2oc(-c3ccc(NC(=O)c4ccccc4[N+](=O)[O-])cc3)nc2c1`, the displacement is 11.1%. As for `Cc1occc1C(=O)Nc1ccc2c(c1)OCO2`, the displacement was found to be 1.9%. With `CCOc1ccccc1NC(=O)c1c(NC(=O)c2ccccc2Br)sc2c1CCCC2`, the displacement was -3.8%. For `CCOC(=O)C1=C(C)N=c2s/c(=C\c3ccc(OCC)cc3)c(=O)n2C1c1ccccc1` (centres undefined), the displacement was -1%.

Turning to `CCc1ccc(-n2[nH]c(C)c(/C=C3/C=Nc4ccccc43)c2=O)cc1`, the displacement is 15.8%. The value for `CCOC(=O)N1N=C(c2cccc([N+](=O)[O-])c2)CC1(O)C(F)(F)F` (centres undefined) was 4.5%; that for `CCN(CC)CCn1c2ccccc2n2cc(-c3ccc(OC)c(OC)c3)nc12` was -7.4%. The figure for `O=C(c1cnn2c1NC(c1cccs1)CC2C(F)(F)F)N1CCN(C(c2ccccc2)c2ccccc2)CC1` (centres undefined) is 12.9%; for `O=C1N/C(=N\N=C\c2ccc(O)cc2)SC1Cc1ccccc1` (centres undefined) it is -1.1%; for `CCOc1ccc(NCC(O)CSCC(O)CNc2ccc(OCC)cc2)cc1` (centres undefined) it is 10.8%. As to `S=c1[nH]nc(-c2cc3ccccc3o2)n1-c1ccccc1`, the displacement is -7.8%.

As for `O=C(Nc1nnc(COc2ccc(Br)cc2)s1)C1CCCCC1`, the displacement was -8.5%. As for `COc1cc(-c2ccc(NC(=O)c3cccnc3)c(OC)c2)ccc1NC(=O)c1cccnc1`, the displacement turned out to be 1.9%.

`O=C(Nc1ccc(N2CCOCC2)cc1)c1cccc(Cl)c1`: the displacement was -1.6%. As to `COc1cc(/C=C/C(=O)c2ccc(Cl)cc2)cc(OC)c1OC`, the displacement is -73.2%. The value for `O=C1c2cccc3cccc(c23)C(=O)N1CCN1CCN(CC(O)c2ccc([N+](=O)[O-])cc2)CC1` (centres undefined) was -14.9%; that for `O=C(NC1CCCCC1)C1COc2ccccc2O1` (centres undefined) was -1.9%; that for `O=C(c1ccco1)N1CCN(C2CC3CCC2C3)CC1` (centres undefined) was -8.7%.

As to `O=C(Nc1nc(-c2ccc(Cl)cc2)cs1)c1cccc(Cl)c1`, the displacement was -6.9%.

`COc1ccccc1NCN1C(=O)S/C(=C/c2ccc(C)cc2)C1=O`: the displacement came out at 6.6%.

Turning to `O=C(O)CSCc1cccc([N+](=O)[O-])c1`, the displacement came to 15.9%. For `COC(=O)CSc1nc(N)c(C#N)c(-c2ccc(OC)cc2)c1C#N`, the displacement was -6.6%. With `O=C(NCCCO)C1CC(=O)N(c2ccc(Br)cc2)C1` (centres undefined), the displacement was -5.9%.

For `CCCCCCCNC1CC(=O)N(c2ccc(OCCC)cc2)C1=O` (centres undefined), the displacement stood at 4%.

The record behind these values is PubChem BioAssay AID1240 (Sanford-Burnham Center for Chemical Genomics, 2008).
